Data: PMC3217859
No constants are given. Whether binding was seen depends on the method and setting. Binding seen in cells or lysates may run through a third protein. Some results given as binding are weak or reduced against the parent protein; the word gives no strength. For some assays here: Tags and fused reporters may be left off the sequences shown.

Amino acid sequences for entries named in this document (tags omitted).
UniProt Q9BUL8: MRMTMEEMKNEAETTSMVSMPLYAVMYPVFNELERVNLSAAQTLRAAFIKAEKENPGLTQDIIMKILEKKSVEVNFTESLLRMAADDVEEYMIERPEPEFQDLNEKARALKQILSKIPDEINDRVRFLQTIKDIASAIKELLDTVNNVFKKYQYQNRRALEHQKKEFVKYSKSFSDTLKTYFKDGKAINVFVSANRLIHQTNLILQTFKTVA

T1: HA-tagged wild-type striatin (human) (UniProt O43815)
T1 sequence: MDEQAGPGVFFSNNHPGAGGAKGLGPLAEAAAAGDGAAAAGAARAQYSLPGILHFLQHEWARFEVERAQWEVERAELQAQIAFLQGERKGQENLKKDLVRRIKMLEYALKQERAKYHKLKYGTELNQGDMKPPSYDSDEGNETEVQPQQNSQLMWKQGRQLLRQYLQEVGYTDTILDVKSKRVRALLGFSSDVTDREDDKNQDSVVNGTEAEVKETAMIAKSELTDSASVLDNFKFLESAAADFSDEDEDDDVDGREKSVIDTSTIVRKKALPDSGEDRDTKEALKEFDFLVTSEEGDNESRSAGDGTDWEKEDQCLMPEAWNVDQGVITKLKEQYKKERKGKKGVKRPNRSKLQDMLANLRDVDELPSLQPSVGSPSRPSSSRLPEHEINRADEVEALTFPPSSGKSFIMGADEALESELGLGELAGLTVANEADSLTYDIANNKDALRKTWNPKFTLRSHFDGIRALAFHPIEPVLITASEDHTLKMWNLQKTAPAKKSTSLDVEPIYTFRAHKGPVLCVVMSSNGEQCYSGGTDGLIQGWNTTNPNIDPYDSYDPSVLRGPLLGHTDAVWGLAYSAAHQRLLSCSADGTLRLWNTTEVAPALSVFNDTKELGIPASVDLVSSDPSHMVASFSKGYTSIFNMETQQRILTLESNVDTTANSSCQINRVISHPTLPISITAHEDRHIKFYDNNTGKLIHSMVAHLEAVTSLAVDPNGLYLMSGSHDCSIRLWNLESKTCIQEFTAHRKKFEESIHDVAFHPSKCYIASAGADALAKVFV

T2: HA-tagged Δ(70-116) striatin (human) (UniProt O43815)
T2 sequence: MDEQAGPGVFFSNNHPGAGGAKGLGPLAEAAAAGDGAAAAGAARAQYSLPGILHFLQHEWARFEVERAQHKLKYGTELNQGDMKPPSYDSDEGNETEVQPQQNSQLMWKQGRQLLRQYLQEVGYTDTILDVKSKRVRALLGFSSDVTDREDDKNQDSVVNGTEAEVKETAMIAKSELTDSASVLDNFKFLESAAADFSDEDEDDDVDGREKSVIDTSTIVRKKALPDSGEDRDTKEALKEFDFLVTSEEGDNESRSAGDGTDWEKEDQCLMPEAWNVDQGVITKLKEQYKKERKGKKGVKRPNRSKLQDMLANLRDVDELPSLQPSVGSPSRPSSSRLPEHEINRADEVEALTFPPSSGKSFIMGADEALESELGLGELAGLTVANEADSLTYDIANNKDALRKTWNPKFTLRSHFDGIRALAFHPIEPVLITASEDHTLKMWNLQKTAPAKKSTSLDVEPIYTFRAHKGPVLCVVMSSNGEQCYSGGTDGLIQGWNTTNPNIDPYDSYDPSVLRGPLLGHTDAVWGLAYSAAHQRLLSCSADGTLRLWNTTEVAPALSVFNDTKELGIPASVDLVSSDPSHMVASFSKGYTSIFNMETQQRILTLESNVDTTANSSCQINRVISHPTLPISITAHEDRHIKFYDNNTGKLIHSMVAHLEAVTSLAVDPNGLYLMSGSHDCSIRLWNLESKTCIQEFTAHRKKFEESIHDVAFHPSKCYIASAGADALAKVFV

T3: HA-tagged Δ(53-66) striatin (human) (UniProt O43815)
T3 sequence: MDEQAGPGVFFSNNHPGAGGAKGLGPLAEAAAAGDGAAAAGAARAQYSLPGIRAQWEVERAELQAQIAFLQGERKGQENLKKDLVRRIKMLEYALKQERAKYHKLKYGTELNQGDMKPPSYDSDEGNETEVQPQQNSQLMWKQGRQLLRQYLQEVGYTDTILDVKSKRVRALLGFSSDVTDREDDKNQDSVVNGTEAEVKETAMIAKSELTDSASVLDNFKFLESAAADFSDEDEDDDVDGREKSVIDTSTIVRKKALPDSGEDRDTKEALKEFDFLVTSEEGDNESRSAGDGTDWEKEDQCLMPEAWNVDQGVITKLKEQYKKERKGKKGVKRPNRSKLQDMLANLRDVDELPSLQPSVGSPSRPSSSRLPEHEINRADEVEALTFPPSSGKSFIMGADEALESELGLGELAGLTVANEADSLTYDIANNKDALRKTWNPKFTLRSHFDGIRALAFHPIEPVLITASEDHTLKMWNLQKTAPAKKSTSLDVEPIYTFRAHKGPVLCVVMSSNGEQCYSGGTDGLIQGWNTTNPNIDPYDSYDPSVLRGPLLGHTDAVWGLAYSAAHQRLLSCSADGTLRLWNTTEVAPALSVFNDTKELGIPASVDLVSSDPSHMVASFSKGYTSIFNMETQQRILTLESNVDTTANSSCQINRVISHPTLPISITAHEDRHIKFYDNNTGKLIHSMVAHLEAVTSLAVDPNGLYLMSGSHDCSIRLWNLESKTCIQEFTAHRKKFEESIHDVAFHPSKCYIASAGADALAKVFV

B1: zinedin (protein, UniProt Q9NRL3 1-753)
chain: MMEERAAAAVAAAASSCRPLGSGAGPGPTGAAPVSAPAPGPGPAGKGGGGGGSPGPTAGPEPLSLPGILHFIQHEWARFEAEKARWEAERAELQAQVAFLQGERKGQENLKTDLVRRIKMLEYALKQERAKYHKLKFGTDLNQGEKKADVSEQVSNGPVESVTLENSPLVWKEGRQLLRQYLEEVGYTDTILDMRSKRVRSLLGRSLELNGAVEPSEGAPRAPPGPAGLSGGESLLVKQIEEQIKRNAAGKDGKERLGGSVLGQIPFLQNCEDEDSDEDDELDSVQHKKQRVKLPSKALVPEMEDEDEEDDSEDAINEFDFLGSGEDGEGAPDPRRCTVDGSPHELESRRVKLQGILADLRDVDGLPPKVTGPPPGTPQPRPHEDVFIMDTIGGGEVSLGDLADLTVTNDNDLSCDLSDSKDAFKKTWNPKFTLRSHYDGIRSLAFHHSQSALLTASEDGTLKLWNLQKAVTAKKNAALDVEPIHAFRAHRGPVLAVAMGSNSEYCYSGGADACIHSWKIPDLSMDPYDGYDPSVLSHVLEGHGDAVWGLAFSPTSQRLASCSADGTVRIWDPSSSSPACLCTFPTASEHGVPTSVAFTSTEPAHIVASFRSGDTVLYDMEVGSALLTLESRGSSGPTQINQVVSHPNQPLTITAHDDRGIRFLDNRTGKPVHSMVAHLDAVTCLAVDPNGAFLMSGSHDCSLRLWSLDNKTCVQEITAHRKKHEEAIHAVACHPSKALIASAGADALAKVFV
B2: HA-tagged wild-type striatin (protein, UniProt O43815 1-780)
chain: T1 sequence

Assays:
[1] = target: T1, HA-tagged wild-type striatin (human); test: co-IP; anti-HA immunoprecipitates (12CA5 with protein A-Sepharose, or F7 anti-HA-agarose when probing for Mst3 or Mst4; 1.5 h, 4°C) of lysates (1% Nonidet P-40, 0.135 M NaCl, 10% glycerol, 20 mM Tris pH 8.0) of HEK293 cells transfected with HA-striatins; endogenous partners by immunoblot, partner/HA-striatin ratio by chemilumimager against wild type; 50 mM NaF and 100 nM okadaic acid in the lysis buffer in the phosphorylation experiments
[2] = target: T2, HA-tagged Δ(70-116) striatin (human); test: as above
[3] = target: T3, HA-tagged Δ(53-66) striatin (human); test: as above
[4] = target: HA-tagged Δ(148-166) striatin (human) (UniProt O43815); test: as above
[5] = target: FLAG-tagged cerebral cavernous malformation 3 (CCM3) protein (human) (UniProt Q9BUL8); test: co-IP; anti-FLAG (M2, protein G-Sepharose) immunoprecipitates of lysates of HEK293 cells stably expressing FLAG-CCM3 and transfected with HA-striatins; HA immunoblot, normalised to expression of the HA-constructs in the lysates

Binder	binding [1]	binding [2]	binding [3]	binding [4]	binding [5]
B1	binds	no binding	no binding	binds	–
B2	–	–	–	–	binds
